Hit rate of the full screen: of about 410,000 compounds, about 1,200 (0.29%) were called active. The inconclusive results got no clear call from the source; some entries with a clear call stand among them for comparison. Calls follow the shape of the dose curve; as a rule, active = well fitted activation curve with a large enough effect; inconclusive = small, poorly fitted or top-dose-only effect; inactive = flat fitted curve, though single readings scatter. A potency beside an inconclusive call is a rough fit, not a confirmed value.
test: qHTS of Nrf2 Activators; conditions: AREc32 ARE-luciferase reporter (MCF7-derived line), luminescence, 24 h; activation: at 46.1 µM (top of the series); also: nearly all actives have a fitted effect of over 65% in size; as to activation: % of control where 0% means no effect
Procedure, shortened: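 AREc32_Fluc, 1000 cells/well, OPTI-MEM + 5% FBS, o/n 37 deg C 5% CO2; 23 nL cpd by pin tool, 24 hr; Steady-Glo 30 min RT, luminescence.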
Potency is read from the fitted curve at half-maximal effect; tags tell the direction and shape of the fitted curve.

Potency, inactive:
COc1cc2cc(C(=O)N/N=C/c3ccc(F)cc3)[nH]c2cc1OC
CCOc1cc(CNCCSc2nnnn2-c2ccccc2)ccc1OC
Cc1ccc(CCS(=O)(=O)c2ccc(C(C)(C)C)cc2)cn1
COc1ccc(CCn2c3c(c(=O)[nH]c2=O)C(NC(=O)c2ccccc2F)(C(F)(F)F)C(=O)N3)cc1OC (stereo not given)
COc1ccc(C(=O)c2oc3nc(C)cc(C)c3c2N)cc1
CC1CCCN(C(=O)COC(=O)c2n[nH]c3ccccc23)C1 (stereo not given)
Cc1ccc(OCC(=O)Nc2cccc(-c3nc4ccccc4s3)c2)cc1
CC(C)(c1ccccc1)c1ccc(OCCCNCCO)cc1
O=C(NCc1cccc(Cl)c1)c1ccc(CS(=O)Cc2ccc(Cl)cc2)o1 (stereo not given)
Cc1cc(NC(=O)c2cc(-c3ccc(C)c(C)c3)nc3ccccc23)no1
CCCCCCCC(=O)OCC(=O)[C@@]1(O)CC[C@H]2[C@@H]3CCC4=CC(=O)CC[C@]4(C)[C@H]3[C@@H](O)C[C@@]21C
COc1cccc(/C=N/NC(=O)c2ccc(CN3c4cccc5cccc(c45)S3(=O)=O)cc2)c1
CCc1ccc(-c2nc(SCC(=O)NCC3CCCO3)c(-c3ccc(C)cc3)[nH]2)cc1 (stereo not given)
CCCCCn1c(=O)[nH]c2cc(C(=O)NCCN3CCCCC3C)ccc2c1=O (stereo not given)
CC(CNC(=O)C1CCN(C(=O)N2CCOc3ccc(Cl)cc32)CC1)c1ccccc1 (stereo not given)
Cc1ccc2sc(NC(=O)C3CC3)nc2c1C
CSCC(=O)N1CCCC(N2CCN(c3cccc(C(F)(F)F)c3)CC2)C1 (stereo not given)
Cc1nc(SC(C)C(=O)Nc2ccccc2Cl)cc(-c2ccccc2)n1 (stereo not given)
C=C(C)Cn1c(Sc2nc3ccccc3[nH]2)nc2c1c(=O)[nH]c(=O)n2C
O=C(c1ccccc1F)N1CCN(c2ccc([N+](=O)[O-])c3ncccc23)CC1
COc1ccc(CCNC(=O)c2ccc(F)c(S(=O)(=O)N3CCCCC3)c2)cc1

Potency, inconclusive:
Clc1nn2cnnc2c2ccccc12 11.2 µM [activator, partial curve, poor fit]
COc1ccccc1N(O)C1CC(=O)N(c2ccc(Br)cc2)C1=O (stereo not given) 22.4 µM [activator, single point]
O=C(CCN1CCC(c2ccccc2)C1)c1cccs1 (stereo not given) 25.1 µM [activator, single point]
CC(=O)c1cccc(-c2csc3ncnc(Sc4nnnn4C)c23)c1 1.12 µM [activator, full curve, poor fit]
CC(C)(C)C(=O)Cn1ncc(Cl)c(Cl)c1=O 3.16 µM [activator, partial curve, poor fit]
Cc1cccc(C(=O)n2c(=S)nc3ccccn32)c1 1.58 µM [activator, partial curve, poor fit]
Cc1cccnc1NC(=O)Nc1cccs1 11.2 µM [activator, partial curve, poor fit]
C=CCn1c(=NC(=O)c2ccco2)sc2cc(C(=O)OC)ccc21 7.08 µM [activator, partial curve, poor fit]
O=S(=O)(c1ccc(OCC2CO2)cc1)c1ccc(OCC2CO2)cc1 (stereo not given) 25.1 µM [activator, single point]
COc1ccc(/C=C/C(=O)C(C(N)=O)=C2SCCS2)cc1 17.8 µM [activator, single point]
c1ccc2c(c1)Cc1cc3ccccc3nc1-2 12.6 µM [activator, partial curve, poor fit]
BrC(=C\c1ccccc1)/C=N/Nc1nc2ccccc2[nH]1 20 µM [activator, single point]
CCCCCCCCC(=O)N/N=C(\C)c1ccco1 15.8 µM [activator, single point]
O=C1C=CC(=O)c2c(O)c(N3CCN(CCOCCO)CC3)c(Br)c(O)c21 5.62 µM [activator, single point]
N/C(=N\OC(=O)c1cccc2ccccc12)c1ccc(Br)cc1 7.08 µM [activator, partial curve, poor fit]
O=C(O)C1=C(C2CCCCC2)C(=O)c2ccccc21 22.4 µM [activator, single point]
CC(C)(CNC(=O)c1ccc([N+](=O)[O-])c(Cl)c1)CNC(=O)c1ccc([N+](=O)[O-])c(Cl)c1 11.2 µM [activator, partial curve]
S=c1[nH]nc(-c2cccnc2)n1/N=C/C(Cl)=C\c1ccccc1 3.16 µM [activator, full curve, poor fit]
O=C1NC(=O)/C(=C\c2ccccc2OCc2ccccc2)S1 14.1 µM [activator, partial curve, poor fit]
O=C(CCl)NN1C(=O)NC(c2ccccc2)(c2ccccc2)C1=O 22.4 µM [activator, single point]
Cc1cc(=O)oc2cc(NC(=O)c3ccccc3OC(F)F)ccc12 0.562 µM [activator, full curve, poor fit]
O=C(NNC(=O)c1cc(OCC(F)(F)F)ccc1OCC(F)(F)F)c1cccc(C(F)(F)F)c1 0.562 µM [activator, full curve, poor fit]
C[n+]1cc[nH]c1SCC(=O)c1ccccc1 35.5 µM [activator, single point]
CCN(CC)CCN(C(=O)/C=C/c1cccs1)c1nc2ccc(F)cc2s1 15.8 µM [activator, partial curve, poor fit]
CCOc1ccccc1NC(=O)c1sc2ncn(CC(=O)N3CCOCC3)c(=O)c2c1C 17.8 µM [activator, single point]
c1ccc(-n2nnnc2Sc2ncnc3sc4c(c23)CCCC4)cc1 15.8 µM [activator, single point]
C(=C\c1nc(-c2cccnc2)no1)/c1ccccc1 22.4 µM [activator, partial curve, poor fit]
CC(C(=O)NC1C=CS(=O)(=O)C1)N1C(=O)/C(=C\c2ccccc2)SC1=S (stereo not given) 20 µM [activator, single point]
COc1ccc2occ(C(=O)c3coc4ccc(O)c(CN(C)C)c34)c2c1 15.8 µM [activator, single point]
Cc1cccc2nc(CSc3nncn3-c3ccccc3)cn12 17.8 µM [activator, single point]
C=C1CCC[C@]2(C)C[C@H]3OC(=O)C(CN4CCOCC4)[C@H]3C[C@@H]12 (stereo not given in full) 11.2 µM [activator, partial curve]
COc1cccc(-c2noc(-c3cccs3)n2)c1 2.24 µM [activator, full curve, poor fit]
COc1ccc(Oc2c(Cl)cnn(-c3ccc(F)cc3)c2=O)cc1 35.5 µM [activator, single point]
Clc1ccc2nc3c4ccccc4cnn3c2c1 15.8 µM [activator, partial curve, poor fit]
CCN1C(=O)c2cccc3c(S(=O)(=O)Nc4ccccc4)ccc1c23 12.6 µM [activator, single point]
Cc1ccc(NC(=S)N/N=C/c2ccc(Cl)c([N+](=O)[O-])c2)cc1 25.1 µM [activator, partial curve, poor fit]
O=C1C(=Cc2ccc(Cl)cc2)Cc2ccccc21 17.8 µM [activator, single point]
COc1ccc(Cl)cc1/C=C/c1ccc2cccc(O)c2n1 2.51 µM [activator, partial curve, poor fit]
Cc1ccc(S(=O)(=O)CCSC(=N)N)cc1 2.82 µM [activator, full curve, poor fit]
CC(=O)c1ccccc1NC(=O)COC(=O)/C=C/c1ccc(C)o1 2.82 µM [activator, partial curve, poor fit]
O=C(CSc1ncn[nH]1)N1N=C2/C(=C/c3ccco3)CCCC2C1c1ccco1 (stereo not given) 11.2 µM [activator, single point]
CC(NC(=O)c1ccccc1)C(=O)N/N=C/c1cccc([N+](=O)[O-])c1 (stereo not given) 4.47 µM [activator, partial curve, poor fit]

Potency, active:
COc1ccccc1NC(CC(=O)c1ccccc1)C(=O)OCC(=O)c1ccc(C)c(C)c1 (stereo not given) 12.6 µM
N/C(=N\OC(=O)/C=C/c1ccccc1Cl)c1cccnc1 15.8 µM
O=C(N/N=C/c1cccc([N+](=O)[O-])c1)c1ccncc1 12.6 µM
O=C(Nc1ncc2c(n1)-c1ccccc1CC2)c1ccccc1 7.94 µM
CN(CCC#N)C(=O)COC(=O)c1ccccc1C(=O)c1ccc(Cl)c([N+](=O)[O-])c1 15.8 µM
CCN(CC)c1ccc2c(c1)oc(=O)c1c(Cl)cc(=O)oc12 8.91 µM

activation, inactive:
O=c1[nH]c(N/N=C/c2ccccc2Br)nnc1-c1ccccc1 2.08% [at 9.22 µM]

Reference: PubChem BioAssay AID624171 (National Center for Advancing Translational Sciences (NCATS), 2012)
